{"source": "paper PMC4336329", "about": "(PLoS ONE, 2015)", "note": "Hit rate of the full screen: of about 310,000 compounds, about 2,200 (0.71%) showed an effect of 50% or more. Effects have a minus sign here. The list shows a part of the results.", "data": [{"biological_target": "human ether-à-go-go-related gene (hERG) potassium channel (human, UniProt Q12809)", "sequence (Q12809 whole entry, looked up)": "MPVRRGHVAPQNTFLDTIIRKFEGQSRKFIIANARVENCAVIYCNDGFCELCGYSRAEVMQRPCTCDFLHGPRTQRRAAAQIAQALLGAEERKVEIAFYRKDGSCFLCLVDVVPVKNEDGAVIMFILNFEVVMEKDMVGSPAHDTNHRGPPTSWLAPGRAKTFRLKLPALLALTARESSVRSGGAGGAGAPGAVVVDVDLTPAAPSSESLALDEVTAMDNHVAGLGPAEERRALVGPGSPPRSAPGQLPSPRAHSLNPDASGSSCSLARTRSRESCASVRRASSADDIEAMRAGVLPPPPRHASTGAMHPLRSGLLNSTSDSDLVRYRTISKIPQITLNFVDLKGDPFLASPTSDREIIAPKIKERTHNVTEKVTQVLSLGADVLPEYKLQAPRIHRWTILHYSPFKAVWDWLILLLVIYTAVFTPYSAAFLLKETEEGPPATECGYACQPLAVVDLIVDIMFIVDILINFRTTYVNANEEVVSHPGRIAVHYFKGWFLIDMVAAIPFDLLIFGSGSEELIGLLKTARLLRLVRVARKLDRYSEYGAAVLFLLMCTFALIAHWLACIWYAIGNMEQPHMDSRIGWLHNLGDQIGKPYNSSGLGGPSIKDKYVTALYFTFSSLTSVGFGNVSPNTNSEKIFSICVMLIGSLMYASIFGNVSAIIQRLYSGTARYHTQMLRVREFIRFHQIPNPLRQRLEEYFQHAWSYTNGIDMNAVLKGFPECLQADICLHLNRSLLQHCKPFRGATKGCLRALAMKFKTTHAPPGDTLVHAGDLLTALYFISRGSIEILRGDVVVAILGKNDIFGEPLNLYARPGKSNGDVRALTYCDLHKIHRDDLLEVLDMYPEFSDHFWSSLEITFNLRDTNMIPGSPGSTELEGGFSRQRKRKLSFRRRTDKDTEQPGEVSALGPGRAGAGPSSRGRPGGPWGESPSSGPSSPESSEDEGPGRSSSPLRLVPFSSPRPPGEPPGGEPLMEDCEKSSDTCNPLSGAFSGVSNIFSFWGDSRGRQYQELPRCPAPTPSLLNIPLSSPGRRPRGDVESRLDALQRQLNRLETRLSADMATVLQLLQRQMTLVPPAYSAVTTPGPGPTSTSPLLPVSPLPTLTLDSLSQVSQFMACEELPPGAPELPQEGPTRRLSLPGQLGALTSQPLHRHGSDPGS", "assay": "primary screen, population patch clamp on CHO cells stably expressing hERG", "units": {"hERG current change (%, negative = inhibition) at 1uM": "%"}, "values": [{"smiles": "CC(=O)n1cc(Nc2ccccc2C(=O)O)c2ccccc21", "hERG current change (%, negative = inhibition) at 1uM": 10}, {"smiles": "O=C(NCC1CCCO1)/C(=C\\c1cccc([N+](=O)[O-])c1)NC(=O)c1ccccc1", "note": "(stereo not drawn)", "hERG current change (%, negative = inhibition) at 1uM": -2.73}, {"smiles": "Cc1ccc(NC(=O)CCC(=O)Nc2nnc(C3CCCCC3)s2)cc1", "hERG current change (%, negative = inhibition) at 1uM": 14.9}, {"smiles": "COC(=O)CCC(=O)N1CCCC(CO)(Cc2ccccc2F)C1", "note": "(stereo not drawn)", "hERG current change (%, negative = inhibition) at 1uM": 1.75}, {"smiles": "CC1CCC(NC(=O)Nc2cccs2)CC1", "note": "(stereo not drawn)", "hERG current change (%, negative = inhibition) at 1uM": 20.9}, {"smiles": "Br.COc1ccc(C2=CSC3=NCCN23)cc1Br", "hERG current change (%, negative = inhibition) at 1uM": -31.4}, {"smiles": "CC(=O)Nc1ccc(NC(=O)/C(Cl)=C/c2ccccc2)cc1", "hERG current change (%, negative = inhibition) at 1uM": 11.4}, {"smiles": "COc1ccccc1C1CC(c2ccccc2)=NN1S(=O)(=O)c1ccccc1", "note": "(stereo not drawn)", "hERG current change (%, negative = inhibition) at 1uM": 6.19}, {"smiles": "Cc1cc(C)c2c(-n3cccc3)nn(CC#N)c2n1", "hERG current change (%, negative = inhibition) at 1uM": 12.3}, {"smiles": "O=C(OCC(=O)N1CCCC1=O)c1ccc(Cl)cc1[N+](=O)[O-]", "hERG current change (%, negative = inhibition) at 1uM": 15.7}, {"smiles": "Cc1nc2cc(NC(=O)N3CCCCC3)ccc2n1C", "hERG current change (%, negative = inhibition) at 1uM": 5.27}, {"smiles": "O=C(Nc1ncc2c(n1)-c1ccccc1OC2)c1ccccc1Cl", "hERG current change (%, negative = inhibition) at 1uM": 8.99}, {"smiles": "COc1ccccc1N1CCN(C(=O)CSc2nc(C)c(C)c(=O)[nH]2)CC1", "hERG current change (%, negative = inhibition) at 1uM": 19.5}, {"smiles": "Cc1ccc(NC(=O)c2cc3nc(C)cc(C)n3n2)cc1", "hERG current change (%, negative = inhibition) at 1uM": -1.22}, {"smiles": "COc1ccc(S(=O)(=O)N2CCCC2CNC(=O)C(=O)Nc2ccc(F)cc2)cc1", "note": "(stereo not drawn)", "hERG current change (%, negative = inhibition) at 1uM": 0.64}, {"smiles": "Cc1ccc(C(=O)NC(C)c2ccc(-n3ccnc3)cc2)o1", "note": "(stereo not drawn)", "hERG current change (%, negative = inhibition) at 1uM": -14.7}, {"smiles": "CC1(C)Cc2c(C#N)c(N)sc(=S)c2CO1", "hERG current change (%, negative = inhibition) at 1uM": 11}, {"smiles": "CN1C(=O)c2ccc(C(=O)NCc3ccccn3)cc2C1=O", "hERG current change (%, negative = inhibition) at 1uM": 5.9}, {"smiles": "CC(=O)c1ccc(N2CCN(C(=O)c3nn(Cc4ccccc4)c(=O)c4ccccc34)CC2)cc1", "hERG current change (%, negative = inhibition) at 1uM": -72.9}, {"smiles": "COc1cc(Nc2cccc[n+]2C)cc(OC)c1OC.[I-]", "hERG current change (%, negative = inhibition) at 1uM": 11.5}, {"smiles": "CN1CCN(C(=O)CSc2nc(-c3cccs3)cc(-c3cccs3)c2C#N)CC1", "hERG current change (%, negative = inhibition) at 1uM": 11.2}, {"smiles": "O=C(NCCCN1CCCC1=O)c1cncc(Br)c1", "hERG current change (%, negative = inhibition) at 1uM": 12.6}, {"smiles": "CCN(CC)CCCNC(=O)c1cc(Cl)c(NC(=O)C2=C(C)OCCS2)cc1OC", "hERG current change (%, negative = inhibition) at 1uM": -1.97}, {"smiles": "O=C(N/C=C/c1ccco1)OCc1ccccc1", "hERG current change (%, negative = inhibition) at 1uM": 11.2}, {"smiles": "O=C(COC(=O)c1ccc(Cl)nc1)Nc1ccc2c(c1)OCCO2", "hERG current change (%, negative = inhibition) at 1uM": 12.8}, {"smiles": "Cn1c(SCC(=O)Nc2nccs2)nnc1-c1cccnc1", "hERG current change (%, negative = inhibition) at 1uM": 3.41}, {"smiles": "O=S(=O)(N/N=C/c1cccnc1)c1ccc(Cl)c(Cl)c1", "hERG current change (%, negative = inhibition) at 1uM": 11.1}, {"smiles": "Cc1ccnc(NC(=O)C2CCN(S(=O)(=O)c3cccc4nonc34)CC2)c1", "hERG current change (%, negative = inhibition) at 1uM": 8.18}, {"smiles": "COc1ccc([N+](=O)[O-])cc1NCc1ccco1", "hERG current change (%, negative = inhibition) at 1uM": 8.17}, {"smiles": "O=C(c1cccc(S(=O)(=O)Nc2ccccc2Cl)c1)N1CCCCCC1", "hERG current change (%, negative = inhibition) at 1uM": -9.23}, {"smiles": "CCOC(=O)C1=C(CC)Nc2ccccc2N=C1NC(=O)Cn1cnc2ccccc2c1=O", "hERG current change (%, negative = inhibition) at 1uM": 7.51}, {"smiles": "CC(C)CC(=O)NC(=S)N1CCN(c2ccc([N+](=O)[O-])cc2Cl)CC1", "hERG current change (%, negative = inhibition) at 1uM": 4.87}, {"smiles": "Cc1ccc(C)c(CSc2nc3[nH]ncc3c(=O)[nH]2)c1", "hERG current change (%, negative = inhibition) at 1uM": 4.6}, {"smiles": "CCOc1cc(OCC)cc(C(=O)NCc2ccco2)c1", "hERG current change (%, negative = inhibition) at 1uM": 4.74}, {"smiles": "O=C(CCC(=O)Nc1ccc(F)cc1)N/N=C/c1cc([N+](=O)[O-])ccc1O", "hERG current change (%, negative = inhibition) at 1uM": 12.7}, {"smiles": "COc1cc(C(=O)NCC(=O)N2CCN(S(=O)(=O)c3ccccc3)CC2)cc(OC)c1OC", "hERG current change (%, negative = inhibition) at 1uM": 13.4}, {"smiles": "O=C(O)c1ccc(N2C(=O)C3ON(c4ccccc4)C(c4ccccc4F)C3C2=O)cc1", "note": "(stereo not drawn)", "hERG current change (%, negative = inhibition) at 1uM": 2.3}, {"smiles": "COC(=O)c1ccccc1NC(=O)c1cccc(COc2ccccc2Cl)c1", "hERG current change (%, negative = inhibition) at 1uM": 13.6}, {"smiles": "Oc1c(Cl)cc(Cl)cc1Sc1cc(Cl)cc(Cl)c1O", "hERG current change (%, negative = inhibition) at 1uM": 14.9}, {"smiles": "CCCCN(CCCC)CC(O)COc1ccccc1Br.Cl", "note": "(stereo not drawn)", "hERG current change (%, negative = inhibition) at 1uM": 1.61}, {"smiles": "C=C(C)CN(CC)c1nc(N)c(C#N)c(CC#N)c1C#N", "hERG current change (%, negative = inhibition) at 1uM": -12.7}, {"smiles": "COc1ccc(CNC(=O)[C@H](C)N2C(=O)N3CCc4c([nH]c5ccc(OC)cc45)[C@@]3(C)C2=O)cc1", "hERG current change (%, negative = inhibition) at 1uM": 12.6}, {"smiles": "O=C(CSc1nc2ccsc2c(=O)n1CC1CCC(C(=O)O)CC1)NCCc1ccc(Cl)cc1", "note": "(stereo not drawn)", "hERG current change (%, negative = inhibition) at 1uM": 21.8}, {"smiles": "NC(=O)CSc1nnc(-c2ccncc2)n1CCc1ccccc1", "hERG current change (%, negative = inhibition) at 1uM": 14.7}, {"smiles": "O=C(Nc1ccc(Cl)cc1)C1CCCC1", "hERG current change (%, negative = inhibition) at 1uM": 10.9}, {"smiles": "Cc1cccc(NC(=O)CCCN2C(=O)C3CC=CCC3C2=O)c1", "note": "(stereo not drawn)", "hERG current change (%, negative = inhibition) at 1uM": 14.3}, {"smiles": "CC(=O)c1cc(-c2ccc(F)cc2)n(CCC(=O)Nc2cccnc2)c1C", "hERG current change (%, negative = inhibition) at 1uM": 15.5}, {"smiles": "C=CCNCCOCCOc1ccc(C)cc1Br.O=C(O)C(=O)O", "hERG current change (%, negative = inhibition) at 1uM": 2.85}, {"smiles": "Cc1cccc(N(CC(=O)Nc2ccc(-c3nc4ccc(C)cc4s3)cc2)S(C)(=O)=O)c1", "hERG current change (%, negative = inhibition) at 1uM": 19.5}, {"smiles": "O=C(NCCc1ccccc1)c1cccnc1", "hERG current change (%, negative = inhibition) at 1uM": 12.6}, {"smiles": "Cc1cc(-c2ccc(S(=O)(=O)N3CCN(c4cccc(C(F)(F)F)c4)CC3)s2)on1", "hERG current change (%, negative = inhibition) at 1uM": 5.92}, {"smiles": "CCC(C)NC(=O)C1CCN(C(=O)COc2ccc3c4c(c(=O)oc3c2C)CCCC4)CC1", "note": "(stereo not drawn)", "hERG current change (%, negative = inhibition) at 1uM": 12.2}, {"smiles": "COc1ccc2cc(CN(CCc3ccccc3)Cc3nnnn3CC3CCCO3)c(=O)[nH]c2c1", "note": "(stereo not drawn)", "hERG current change (%, negative = inhibition) at 1uM": -1.92}, {"smiles": "COC(=O)Nc1ccc(Cc2ccncc2)cc1", "hERG current change (%, negative = inhibition) at 1uM": 13.9}, {"smiles": "O=C(COC(=O)c1ccc(Oc2ccccc2)cc1)Nc1nnc(-c2ccccc2)o1", "hERG current change (%, negative = inhibition) at 1uM": 11.6}, {"smiles": "Cc1cc(C)cc(NC(=S)N(CCN(C)C)Cc2cccs2)c1", "hERG current change (%, negative = inhibition) at 1uM": 2.32}, {"smiles": "CN(C)C=O.O=C(/C=C/c1cccc(F)c1)Nc1ccc(S(=O)(=O)Nc2ncccn2)cc1", "hERG current change (%, negative = inhibition) at 1uM": 6.26}]}]}
